Data on 48 molecules can be found in PubChem BioAssay AID493208 (National Center for Advancing Translational Sciences (NCATS), 2011).

Screen size: about 44,000 compounds; about 340 (0.77%) were called active. Roughly 5% stayed inconclusive and do not appear here. The call rests on the fitted dose curve; in most records, active means well fitted inhibition curve with a large enough effect; inconclusive means small, poorly fitted or top-dose-only effect; inactive means flat fitted curve, though single readings scatter. The list shows a part of the results.
Potency means the concentration at half of the fitted maximal effect.

This assay in a line: Acumen qHTS Assay for Inhibitors of the mTORC1 Signaling Pathway in MEF (Tsc2-/-, p53-/-) Cells: Sytravon. Further: nearly all actives have a fitted effect of over 50% in size.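 On activity change, negative = inhibition: plate controls were DMSO for no effect and rapamycin for full effect.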 Particulars: phospho-rpS6 immunofluorescence/PI, 24 h; series mostly up to 38.3 µM; activity change, negative = inhibition: at the top concentration. A digest of the protocol:
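Tsc2-/-, p53-/- MEFs (empty-vector stable line) in DMEM + 10% FBS were treated with compounds 24 h at 37 degree Celsius, fixed, and immunostained for phospho-rpS6 (Alexa-488) with propidium iodide counterstain. Laser-scanning cytometry gave % positive cells, normalized against 7.5 nM rapamycin and DMSO.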
On the technique in general: qHTS replaces the single test concentration by a dilution series.
Consider `COc1ccccc1C(=O)Nc1nnc(S(=O)(=O)N2CCCCC2)s1`, for which the “activity change, negative = inhibition” value was inactive: 8.16%.
The same measure, in the same setting: the result for `CCOC(=O)c1c(Nc2ccc(OCC)cc2)nnc(-c2ccccc2)c1-c1ccccc1` reads inactive: -8.65%.
Same read-out and setting: the result for `COc1ccc2ncc3c(-c4ccccc4)nn(-c4ccc(C)c(C)c4)c3c2c1` reads inactive: -0.521%; that for `COc1ccccc1NC(=O)CSc1ncc(CO)n1Cc1ccc(F)cc1`, inactive: 1.12%.
On the same count and under the same terms, the result for `Cc1ccccc1NC(=O)Cn1c(=O)n(Cc2ccco2)c(=O)c2ccc(C(=O)NC3CCCC3)cc21` reads inactive: -5.86%; that for `Cc1cccc(N2CCN(C(=O)C3CCN(S(=O)(=O)Cc4ccccc4)CC3)CC2)c1C`, inactive: 3.84%; that for `Cc1cc(-c2ccccc2)nc2cc(C(=O)Nc3ccc(Cl)c(Cl)c3)nn12`, inactive: -11.5%.
With `CCOC(=O)c1cnc2cc(Cl)c(OC)cc2c1Nc1ccc(Br)cc1C`, the “activity change, negative = inhibition” value was inactive: -3.03%.
The same measure, in the same setting: then `COc1ccccc1N1CCN(C(=O)C2CCN(S(=O)(=O)c3cccs3)CC2)CC1`, with inactive: -7.58%; and `COc1ccccc1C(=O)NC1(C(F)(F)F)C(=O)NC(C)=C1C#N` (stereo not drawn), with inactive: -0.512%.
Regarding `COc1cc(OC)c(NC(=O)c2nn(C)c3c2COc2ccccc2-3)cc1Cl`, the “activity change, negative = inhibition” value is inactive: -3.37%.
Same read-out and setting: then `Cc1ccccc1NC(=O)Cn1nnc(C(=O)NCc2ccco2)c1N`, with inactive: -21.3%.
Same read-out and setting: the result for `COc1ccc(Cn2nc3n(c2=O)-c2ccccc2OC3)cc1` reads inactive: 3.14%.
Same read-out and setting: then `Cc1cccc(C(=O)Nc2nnc(S(=O)(=O)N3CCOCC3)s2)c1`, with inactive: 3.64%; and `Cc1ccc(C)c(Cn2c(=O)n(CCc3ccccc3)c(=O)c3c(C)c(C)sc32)c1`, with inactive: -1.91%; and `O=C(Nc1ccccc1)c1cc2c(-c3ccccc3)nn(-c3ccccc3)c2s1`, with inactive: 1.08%.
In the case of `Cc1ccc(-c2nnc(Nc3cccc(Br)c3)c3ccccc23)cc1S(=O)(=O)N1CCN(C)CC1`, the “activity change, negative = inhibition” value was inactive: 1.85%.
`O=C(CSc1c2c(nc3ccc(Cl)cc13)CCCC2)N1CCN(c2ccc(Cl)cc2)CC1`: the “activity change, negative = inhibition” value was inactive: 1.46%.
For `CCOc1ccc(OC(=O)c2sc3ncn(Cc4cccc(F)c4)c(=O)c3c2C)cc1`, the “activity change, negative = inhibition” value is inactive: -6.43%.
Same read-out and setting: then `COc1ccc(OC)c(NC(=O)C(Cc2ccccc2)NS(=O)(=O)c2ccc3c(c2)CCC(=O)N3)c1` (stereo not drawn), with inactive: -14.2%.
On to `CCn1cc2nc(SCc3c(F)cccc3Cl)n(CCc3ccccc3)c(=O)c2n1`, for which the “activity change, negative = inhibition” value is inactive: -3.23%.
`O=C(Nc1ccc(Br)cc1)Nc1nc2c(s1)CCCCCC2`: the “activity change, negative = inhibition” value is inactive: -0.193%.
On the same count and under the same terms, the result for `CCN(CC)S(=O)(=O)c1ccc2c(c1)N(CC(=O)Nc1cccc(C(C)=O)c1)C(=O)CO2` reads inactive: 5.16%.
The same measure, in the same setting: then `O=C(COCc1cc(-c2ccc3c(c2)OCO3)on1)Nc1cccc(O)c1`, with inactive: -15.7%; and `CCC(=O)N1c2ccccc2CC1C(=O)NCCCN1CCN(c2ccc(F)cc2)CC1` (stereo not drawn), with inactive: 0%; and `COc1ccc(Cl)cc1S(=O)(=O)Nc1ccc2c(c1)n(C)c(=O)n2C`, with inactive: -0.101%.
The same measure, in the same setting: the result for `COc1ccc(NC(=O)C(=O)Nc2ccc3nc4n(c(=O)c3c2)CCCCC4)c(OC)c1` reads inactive: -3.09%; that for `Cc1cccc(C(=O)n2nc(-c3ccco3)nc2NCc2ccccc2)c1`, inactive: 1.52%; that for `CCc1ccccc1NC(=O)Cn1cc(C(=O)c2ccncc2)c(=O)c2cc(C)ccc21`, inactive: 2.35%.
`O=C(CCSCCc1ccccn1)Nc1ccccc1C(F)(F)F`: the “activity change, negative = inhibition” value is inactive: 0.184%.
Still for that read-out and setting: then `O=C(COCc1cc(-c2ccc(F)cc2)on1)Nc1cc(Cl)cc(Cl)c1`, with inactive: 1.48%.
On the same count and under the same terms, then `Cc1ccc(-n2ncc3c(NCCc4ccccc4)ncnc32)cc1Cl`, with inactive: 10.9%.
The same measure, in the same setting: the result for `COc1ccc(CCNC(=O)c2cc(-c3ccc(C)cc3)nc3n[nH]c(-c4ccc(F)cc4)c23)cc1OC` reads inactive: 2.98%; that for `O=C(CCSCc1cccc(F)c1)NCCc1ccccc1`, inactive: -14.1%; that for `Cc1ccc(N2CC(C(=O)NCCS(=O)(=O)N3CCN(c4ccc(F)cc4)CC3)CC2=O)cc1` (stereo not drawn), inactive: 0.828%.
For the molecule `COc1cc(OC)c(NC(=O)Cn2c(=O)nc(-c3ccccc3)c3ccccc32)cc1Cl`, the “activity change, negative = inhibition” value is inactive: 7.62%.
Still for that read-out and setting: then `COCCCNc1oc(-c2ccc(COc3ccccc3C)o2)nc1C#N`, with inactive: -9.87%; and `CC1=C(C(=O)Nc2cccc(F)c2)C2(CCCCCC2)OC1=O`, with inactive: 1.97%.
On the same count and under the same terms, the result for `COc1cccc(Cn2c(=O)n(-c3cc(C)cc(C)c3)c(=O)c3oc4ccccc4c32)c1` reads inactive: -7.35%.
Take `Cc1c(Cl)cccc1-c1ccc(C(=O)Nc2ccc3oc(-c4cccnc4)nc3c2)o1`: the Potency is active: 13.1 µM.
Consider `CCC(CC)C(=O)Nc1cccc(-c2cn3cccnc3n2)c1`, for which the “activity change, negative = inhibition” value was inactive: -14.1%.
Same read-out and setting: the result for `Cc1ccc2c(=O)c(C(=O)c3cccc(Cl)c3)cn(CC(=O)NCc3ccccc3)c2n1` reads inactive: -0.846%.
On the same count and under the same terms, then `CCc1ccc(NC(=O)C2CCN(c3ccc(Sc4ccc(C)cc4)nn3)CC2)cc1`, with inactive: -10.6%; and `COc1ccc(CCNC(=O)Cn2c(=O)cc(C(F)(F)F)c3c(C)nn(C)c32)c(OC)c1`, with inactive: -7.43%; and `CCc1ccc(C2=CC(c3cccc(OC)c3OC)n3c(nc4ccccc43)N2)cc1` (stereo not drawn), with inactive: 0.133%.
The same measure, in the same setting: then `Cc1ccc(N2CCN(S(=O)(=O)c3nnc(NC(=O)c4cccc(F)c4)s3)CC2)cc1`, with inactive: -6.05%; and `O=C(Cn1cccc1C(=O)c1ccccc1)NCc1ccc(Cl)cc1`, with inactive: 2.63%; and `CCCN1CCN(CCCNC(=O)c2cc3c(=O)[nH]c4ccccc4c3s2)CC1`, with inactive: -0.323%.
